From patent publication US8809372B2, “Pyridine derivatives” (Endo Pharmaceuticals, Inc., priority 2011, dated 2014)

Question: With `CC(O)(c1ccncc1)c1cnc(-c2ccc(F)cc2)s1` (racemic) (as salt: sulfonic acid salt) [Example 7, 1-(2-(4-Fluorophenyl)thiazol-5-yl)-1-(pyridin-4-yl)ethanol] as the compound, how does the melting point (4-methylbenzenesulfonic acid salt) read?
Answer: Its melting point is 181 to 184 °C.

Question: What about the melting point (benzenesulfonic acid salt) of the same compound?
Answer: Its melting point is 165 to 167 °C.

Where a name gives a salt, the structure may show the parent alone. Read-outs that look alike come from different tables or passages of the source. Entries with a single value are a further part of the results.
